# Measurements published in paper PMC4274898.
# These are yes or no findings as the source states them, for the method shown. Some results given as binding are weak or reduced against the parent protein; the word gives no strength.
# T1: ARF3 (Arabidopsis thaliana) (UniProt O23661)
# T1 sequence: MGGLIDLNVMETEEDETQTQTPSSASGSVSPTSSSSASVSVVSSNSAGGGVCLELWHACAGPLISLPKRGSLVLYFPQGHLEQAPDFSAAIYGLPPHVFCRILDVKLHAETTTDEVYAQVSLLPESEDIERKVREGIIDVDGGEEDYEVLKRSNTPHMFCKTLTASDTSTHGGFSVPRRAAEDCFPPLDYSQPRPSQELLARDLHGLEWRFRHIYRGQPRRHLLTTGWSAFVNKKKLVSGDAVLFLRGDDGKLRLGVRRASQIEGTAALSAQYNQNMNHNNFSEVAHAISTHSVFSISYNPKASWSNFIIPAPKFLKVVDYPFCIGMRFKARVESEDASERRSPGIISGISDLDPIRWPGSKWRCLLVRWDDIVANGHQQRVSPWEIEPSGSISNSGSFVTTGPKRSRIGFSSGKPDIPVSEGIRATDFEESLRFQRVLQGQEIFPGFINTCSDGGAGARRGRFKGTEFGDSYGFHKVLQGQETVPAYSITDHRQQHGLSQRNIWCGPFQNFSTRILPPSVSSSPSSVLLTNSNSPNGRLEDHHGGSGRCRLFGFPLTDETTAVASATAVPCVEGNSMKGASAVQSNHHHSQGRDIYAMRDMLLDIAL
# T2: ARF7 (Arabidopsis thaliana) (UniProt P93022)
# T2 sequence: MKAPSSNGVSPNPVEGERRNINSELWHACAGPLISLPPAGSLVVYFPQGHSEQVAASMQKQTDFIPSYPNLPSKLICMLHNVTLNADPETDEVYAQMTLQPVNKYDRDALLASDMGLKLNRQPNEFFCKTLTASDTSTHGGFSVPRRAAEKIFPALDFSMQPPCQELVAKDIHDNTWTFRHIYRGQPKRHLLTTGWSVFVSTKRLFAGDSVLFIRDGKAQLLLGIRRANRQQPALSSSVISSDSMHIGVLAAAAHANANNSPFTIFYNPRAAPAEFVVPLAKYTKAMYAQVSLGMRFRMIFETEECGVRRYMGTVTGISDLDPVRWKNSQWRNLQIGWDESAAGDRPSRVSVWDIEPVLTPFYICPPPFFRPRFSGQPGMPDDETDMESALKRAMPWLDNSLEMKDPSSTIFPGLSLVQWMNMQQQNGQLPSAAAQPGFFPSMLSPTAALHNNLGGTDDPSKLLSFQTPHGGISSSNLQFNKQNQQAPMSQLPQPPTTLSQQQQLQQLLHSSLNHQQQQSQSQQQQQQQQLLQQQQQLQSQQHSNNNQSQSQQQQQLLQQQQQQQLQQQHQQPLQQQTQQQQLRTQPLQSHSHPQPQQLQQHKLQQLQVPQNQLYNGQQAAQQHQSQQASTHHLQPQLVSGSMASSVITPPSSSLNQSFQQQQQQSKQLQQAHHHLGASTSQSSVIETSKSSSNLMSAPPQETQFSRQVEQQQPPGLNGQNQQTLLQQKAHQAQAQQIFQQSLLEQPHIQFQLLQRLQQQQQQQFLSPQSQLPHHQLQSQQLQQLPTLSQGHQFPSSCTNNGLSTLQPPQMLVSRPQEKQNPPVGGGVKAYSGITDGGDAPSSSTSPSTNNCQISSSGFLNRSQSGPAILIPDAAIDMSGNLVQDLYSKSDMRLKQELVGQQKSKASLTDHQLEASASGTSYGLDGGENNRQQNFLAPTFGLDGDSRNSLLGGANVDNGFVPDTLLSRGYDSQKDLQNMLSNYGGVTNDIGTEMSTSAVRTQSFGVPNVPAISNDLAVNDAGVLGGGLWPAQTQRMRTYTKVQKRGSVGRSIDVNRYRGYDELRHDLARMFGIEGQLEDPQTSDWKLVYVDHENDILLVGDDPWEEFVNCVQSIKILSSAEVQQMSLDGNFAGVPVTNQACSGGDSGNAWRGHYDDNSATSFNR
# T3: ARF8 (Arabidopsis thaliana) (UniProt Q9FGV1)
# T3 sequence: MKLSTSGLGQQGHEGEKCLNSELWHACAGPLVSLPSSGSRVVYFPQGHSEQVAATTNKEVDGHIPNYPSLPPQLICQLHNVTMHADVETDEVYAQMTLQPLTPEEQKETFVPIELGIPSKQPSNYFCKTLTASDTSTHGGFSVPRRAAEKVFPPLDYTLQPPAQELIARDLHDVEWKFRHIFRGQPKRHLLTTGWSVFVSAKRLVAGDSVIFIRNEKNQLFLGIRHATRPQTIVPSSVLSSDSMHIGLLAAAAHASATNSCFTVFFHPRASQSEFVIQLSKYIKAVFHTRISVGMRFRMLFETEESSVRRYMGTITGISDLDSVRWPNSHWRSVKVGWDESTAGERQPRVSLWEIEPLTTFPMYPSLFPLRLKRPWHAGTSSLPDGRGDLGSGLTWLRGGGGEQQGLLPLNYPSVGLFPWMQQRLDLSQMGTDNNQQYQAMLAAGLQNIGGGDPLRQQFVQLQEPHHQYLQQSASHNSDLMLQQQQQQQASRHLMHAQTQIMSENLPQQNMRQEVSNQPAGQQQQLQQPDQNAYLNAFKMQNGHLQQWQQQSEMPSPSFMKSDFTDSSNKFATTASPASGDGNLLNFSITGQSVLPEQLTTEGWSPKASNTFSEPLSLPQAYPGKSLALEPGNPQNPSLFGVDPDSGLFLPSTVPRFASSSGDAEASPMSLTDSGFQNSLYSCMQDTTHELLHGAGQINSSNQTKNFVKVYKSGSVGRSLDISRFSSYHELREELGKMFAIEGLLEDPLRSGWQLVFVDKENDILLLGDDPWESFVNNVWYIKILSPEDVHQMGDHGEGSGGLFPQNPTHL
# How the values were obtained:
# Assay in all cases: two-hybrid; S. cerevisiae AH109 co-transformed with pGBKT7-ARF (bait) and pGADT7-Aux/IAA (prey); growth on SD/-Ade-His-Leu-Trp against SD/-Leu/-Trp; at least 10 independent colonies; serial dilutions for strength
# [1] = target: T1, ARF3 (Arabidopsis thaliana)
# [2] = target: T2, ARF7 (Arabidopsis thaliana)
# [3] = target: T3, ARF8 (Arabidopsis thaliana)
Binder,binding [1],binding [2],binding [3]
"Aux/IAA2 (protein, UniProt P49678 1-174) MAYEKVNELNLKDTELCLGLPGRTEKIKEEQEVSCVKSNNKRLFEETRDEEESTPPTKTQIVGWPPVRSSRKNNNSVSYVKVSMDGAPYLRKIDLKTYKNYPELLKALENMFKVMIGEYCEREGYKGSGFVPTYEDKDGDWMLVGDVPWDMFSSSCKRLRIMKGSDAPALDSSL",no binding,binds,binds
"Aux/IAA16 (protein, UniProt O24407 1-236) MINFEATELRLGLPGGNHGGEMAGKNNGKRGFSETVDLKLNLSSTAMDSVSKVDLENMKEKVVKPPAKAQVVGWPPVRSFRKNVMSGQKPTTGDATEGNDKTSGSSGATSSASACATVAYVKVSMDGAPYLRKIDLKLYKTYQDLSNALSKMFSSFTIGNYGPQGMKDFMNESKLIDLLNGSDYVPTYEDKDGDWMLVGDVPWEMFVDSCKRIRIMKGSEAIGLAPRALEKCKNRS",no binding,binds,binds
"Aux/IAA18 (protein, UniProt O24408 1-267) MEGYSRNGEISPKLLDLMIPQERRNWFHDEKNSVFKTEEKKLELKLGPPGEEDDDESMIRHMKKEPKDKSILSLAGKYFSPSSTKTTSHKRTAPGPVVGWPPVRSFRKNLASGSSSKLGNDSTTSNGVTLKNQKCDAAAKTTEPKRQGGMFVKINMYGVPIGRKVDLSAHNSYEQLSFTVDKLFRGLLAAQRDFPSSIEDEKPITGLLDGNGEYTLTYEDNEGDKMLVGDVPWQMFVSSVKRLRVIKTSEISSALTYGNGKQEKMRR",no binding,binds,binds
"Aux/IAA19 (protein, UniProt O24409 1-197) MEKEGLGLEITELRLGLPGRDVAEKMMKKRAFTEMNMTSSGSNSDQCESGVVSSGGDAEKVNDSPAAKSQVVGWPPVCSYRKKNSCKEASTTKVGLGYVKVSMDGVPYLRKMDLGSSQGYDDLAFALDKLFGFRGIGVALKDGDNCEYVTIYEDKDGDWMLAGDVPWGMFLESCKRLRIMKRSDATGFGLQPRGVDE",no binding,binds,binds
"Aux/IAA20 (protein, UniProt O24410 1-175) MGRGRSSSSSSIESSSKSNPFGASSSTRNLSTDLRLGLSFGTSSGTQYFNGGYGYSVAAPAVEDAEYVAAVEEEEENECNSVGSFYVKVNMEGVPIGRKIDLMSLNGYRDLIRTLDFMFNASILWAEEEDMCNEKSHVLTYADKEGDWMMVGDVPWEMFLSTVRRLKISRANYHY",no binding,binds,binds
"Aux/IAA26 (protein, UniProt Q8LAL2 1-269) MEGCPRNREIGPKLLDLIPQGRKWYQEDKNNTDQEKKLELRLGPPGGDEEDHSAIKKKNTEIRNIKKETEDKSFHCFNGNHFSPSNKTTSVPHISQKRTAPGPVVGWPPVRSFRKNLASTSSSKLGNESSHGGQINKSDDGEKQVETKKEGMFVKINMDGVPIGRKVDLNAYNSYEQLSFVVDKLFRGLLAAQRDISDGQGEEKPIIGLLDGKGEFTLTYEDNEGDKMLVGDVPWQMFVSSVKRLRVIKSSEISSALTFGCSKQEKMMH",no binding,binds,binds
"Aux/IAA27 (protein, UniProt Q9ZSY8 1-305) MSVSVAAEHDYIGLSEFPTMEATTMSDKTKTRDNNNGLNFKATELRLGLPGSESPERVDSRFLALNKSSCPVSGAKRVFSDAINDSNKWVFSPGSTTATGDVGSGSGPRTSVVKDGKSTTFTKPAVPVKEKKSSATAPASKAQVVGWPPIRSFRKNSMASSQSQKPGNNSETEEAEAKSGPEQPCLYVKVSMEGAPYLRKIDLKTYKSYLELSSALEKMFSCFTIGQFGSHGGCGRDGLNESRLTDLLRGSEYVVTYEDKDSDWMLVGDVPWEMFICSCKKLRIMKSSEAIGLAPRVMEKCRSRN",no binding,binds,binds
"Aux/IAA28 (protein, UniProt Q9XFM0 1-175) MEEEKRLELRLAPPCHQFTSNNNINGSKQKSSTKETSFLSNNRVEVAPVVGWPPVRSSRRNLTAQLKEEMKKKESDEEKELYVKINMEGVPIGRKVNLSAYNNYQQLSHAVDQLFSKKDSWDLNRQYTLVYEDTEGDKVLVGDVPWEMFVSTVKRLHVLKTSHAFSLSPRKHGKE",no binding,binds,binds
"Aux/IAA29 (protein, UniProt Q93WC4 1-251) MELDLGLSLSPHKSSKLGFNFDLNKHCAIEGAASCLGTEKLRFEATFGLGNVEENCYMPKQRLFALNGQPNEEDEDPLESESSIVYDDEEENSEVVGWPPVKTCMIKYGSYHHRHIRNHHHCPYHHRGRRITAMNNNISNPTTATVGSSSSSSISSRSSMYVKVKMDGVAIARKVDIKLFNSYESLTNSLITMFTEYEDCDREDTNYTFTFQGKEGDWLLRGDVTWKIFAESVHRISIIRDRPCAYTRCLF",no binding,binds,binds
"Aux/IAA30 (protein, UniProt Q9M1R4 1-172) MGRGRSSSSSSIESSCKSNPFGVSSSNTRNLSTDLRLGLSFGSSSGQYYNGGDNHEYDGVGAAEEMMIMEEEEQNECNSVGSFYVKVNMEGVPIGRKIDLLSLNGYHDLITTLDYMFNASILWAEEEDMCSEKSHVLTYADKEGDWMMVGDVPWEMFLSSVRRLKISRAYHY",no binding,binds,binds
"Aux/IAA3 (protein, UniProt Q38822 1-189) MDEFVNLKETELRLGLPGTDNVCEAKERVSCCNNNNKRVLSTDTEKEIESSSRKTETSPPRKAQIVGWPPVRSYRKNNIQSKKNESEHEGQGIYVKVSMDGAPYLRKIDLSCYKGYSELLKALEVMFKFSVGEYFERDGYKGSDFVPTYEDKDGDWMLIGDVPWEMFICTCKRLRIMKGSEAKGLGCGV",no binding,binds,binds
